Data from ChEMBL document CHEMBL5046242, “Investigation of Janus Kinase (JAK) Inhibitors for Lung Delivery and the Importance of Aldehyde Oxidase Metabolism” (J Med Chem, 2022).
Values after ≈ are worked out from the molar mass of the structure shown.

Legend:
Aurora kinase B = Aurora kinase B (Homo sapiens, UniProt Q96GD4)
in vitro [1] = details: PAMPA, pH 7.4
physchem [2] = details: buffer, pH 6.5
in vitro [3] = details: human, cytosol
in vitro [4] = details: human, cytosol; remark: listed apart in the source
[5] = molecular target: Tyrosine-protein kinase JAK1 (Homo sapiens, UniProt P23458); assay type: cell-based
Sequence of Tyrosine-protein kinase JAK1 (P23458 whole entry): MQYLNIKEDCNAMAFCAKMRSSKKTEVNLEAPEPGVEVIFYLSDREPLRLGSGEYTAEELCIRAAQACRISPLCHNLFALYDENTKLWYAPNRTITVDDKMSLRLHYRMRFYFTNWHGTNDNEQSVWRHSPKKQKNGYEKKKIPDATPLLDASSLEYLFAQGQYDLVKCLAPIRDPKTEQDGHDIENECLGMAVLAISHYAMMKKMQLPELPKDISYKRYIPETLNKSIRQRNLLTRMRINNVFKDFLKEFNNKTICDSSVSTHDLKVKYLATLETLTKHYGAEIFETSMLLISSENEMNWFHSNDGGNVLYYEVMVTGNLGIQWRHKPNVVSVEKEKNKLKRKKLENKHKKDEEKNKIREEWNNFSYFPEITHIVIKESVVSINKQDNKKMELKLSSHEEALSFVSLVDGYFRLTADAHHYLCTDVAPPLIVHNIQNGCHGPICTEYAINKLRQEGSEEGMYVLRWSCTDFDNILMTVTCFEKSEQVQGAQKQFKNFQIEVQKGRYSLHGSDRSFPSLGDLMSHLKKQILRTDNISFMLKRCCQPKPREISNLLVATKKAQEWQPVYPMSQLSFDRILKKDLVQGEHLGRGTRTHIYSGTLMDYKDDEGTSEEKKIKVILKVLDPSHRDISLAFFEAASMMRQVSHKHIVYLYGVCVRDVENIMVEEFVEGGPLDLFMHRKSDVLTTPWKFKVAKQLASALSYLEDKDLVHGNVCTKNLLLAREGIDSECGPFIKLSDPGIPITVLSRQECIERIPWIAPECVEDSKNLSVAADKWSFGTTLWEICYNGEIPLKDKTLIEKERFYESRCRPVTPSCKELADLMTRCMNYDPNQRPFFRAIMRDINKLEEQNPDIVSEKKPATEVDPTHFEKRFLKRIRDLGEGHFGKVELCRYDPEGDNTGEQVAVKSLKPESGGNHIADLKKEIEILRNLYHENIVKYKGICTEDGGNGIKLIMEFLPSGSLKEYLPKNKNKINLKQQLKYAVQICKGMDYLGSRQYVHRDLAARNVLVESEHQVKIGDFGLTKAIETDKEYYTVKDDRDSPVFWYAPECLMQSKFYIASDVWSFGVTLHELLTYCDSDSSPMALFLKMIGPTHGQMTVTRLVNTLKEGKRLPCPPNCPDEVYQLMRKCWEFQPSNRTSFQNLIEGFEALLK

[6] = molecular target: Non-receptor tyrosine-protein kinase TYK2 (Homo sapiens, UniProt P29597); assay type: cell-based
Sequence of Non-receptor tyrosine-protein kinase TYK2 (P29597 whole entry): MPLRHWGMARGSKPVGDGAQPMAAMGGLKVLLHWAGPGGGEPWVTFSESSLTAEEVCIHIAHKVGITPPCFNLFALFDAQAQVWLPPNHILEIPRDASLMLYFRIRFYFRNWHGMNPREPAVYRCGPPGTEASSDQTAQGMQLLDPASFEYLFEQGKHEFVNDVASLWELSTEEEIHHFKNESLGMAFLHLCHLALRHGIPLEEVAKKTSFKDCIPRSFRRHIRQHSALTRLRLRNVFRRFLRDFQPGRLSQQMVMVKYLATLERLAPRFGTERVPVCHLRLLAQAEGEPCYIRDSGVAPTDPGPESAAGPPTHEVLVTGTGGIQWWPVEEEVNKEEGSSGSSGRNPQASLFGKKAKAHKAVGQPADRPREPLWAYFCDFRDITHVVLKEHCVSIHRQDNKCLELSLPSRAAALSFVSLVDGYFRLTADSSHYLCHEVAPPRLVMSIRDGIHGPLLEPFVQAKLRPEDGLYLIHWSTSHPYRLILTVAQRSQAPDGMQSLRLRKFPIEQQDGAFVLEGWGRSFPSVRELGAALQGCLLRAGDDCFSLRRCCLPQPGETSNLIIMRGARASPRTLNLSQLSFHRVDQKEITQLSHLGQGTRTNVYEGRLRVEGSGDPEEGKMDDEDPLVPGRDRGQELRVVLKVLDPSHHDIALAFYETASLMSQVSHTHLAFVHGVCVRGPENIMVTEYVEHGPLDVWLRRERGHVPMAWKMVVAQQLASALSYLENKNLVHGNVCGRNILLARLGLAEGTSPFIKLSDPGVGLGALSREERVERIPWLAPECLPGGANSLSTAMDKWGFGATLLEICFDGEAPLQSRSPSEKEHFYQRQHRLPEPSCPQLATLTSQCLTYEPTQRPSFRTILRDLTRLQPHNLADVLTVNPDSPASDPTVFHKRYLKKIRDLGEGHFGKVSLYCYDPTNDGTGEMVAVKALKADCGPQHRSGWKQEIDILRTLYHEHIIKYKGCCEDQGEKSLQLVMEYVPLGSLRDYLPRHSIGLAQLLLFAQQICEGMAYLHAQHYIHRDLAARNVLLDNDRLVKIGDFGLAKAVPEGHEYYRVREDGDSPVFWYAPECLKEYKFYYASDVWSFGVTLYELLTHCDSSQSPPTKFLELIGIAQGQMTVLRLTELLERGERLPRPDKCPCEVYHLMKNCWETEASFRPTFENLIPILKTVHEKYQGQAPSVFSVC

physchem [7] = details: buffer, pH 7.4
physchem [8] = details: Lung, pH 6.5
physchem [9] = details: buffer, pH 6.5; remark: listed apart in the source
[10] = molecular target: Vascular endothelial growth factor receptor 2 (Homo sapiens, UniProt P35968)
Sequence of Vascular endothelial growth factor receptor 2 (P35968 whole entry): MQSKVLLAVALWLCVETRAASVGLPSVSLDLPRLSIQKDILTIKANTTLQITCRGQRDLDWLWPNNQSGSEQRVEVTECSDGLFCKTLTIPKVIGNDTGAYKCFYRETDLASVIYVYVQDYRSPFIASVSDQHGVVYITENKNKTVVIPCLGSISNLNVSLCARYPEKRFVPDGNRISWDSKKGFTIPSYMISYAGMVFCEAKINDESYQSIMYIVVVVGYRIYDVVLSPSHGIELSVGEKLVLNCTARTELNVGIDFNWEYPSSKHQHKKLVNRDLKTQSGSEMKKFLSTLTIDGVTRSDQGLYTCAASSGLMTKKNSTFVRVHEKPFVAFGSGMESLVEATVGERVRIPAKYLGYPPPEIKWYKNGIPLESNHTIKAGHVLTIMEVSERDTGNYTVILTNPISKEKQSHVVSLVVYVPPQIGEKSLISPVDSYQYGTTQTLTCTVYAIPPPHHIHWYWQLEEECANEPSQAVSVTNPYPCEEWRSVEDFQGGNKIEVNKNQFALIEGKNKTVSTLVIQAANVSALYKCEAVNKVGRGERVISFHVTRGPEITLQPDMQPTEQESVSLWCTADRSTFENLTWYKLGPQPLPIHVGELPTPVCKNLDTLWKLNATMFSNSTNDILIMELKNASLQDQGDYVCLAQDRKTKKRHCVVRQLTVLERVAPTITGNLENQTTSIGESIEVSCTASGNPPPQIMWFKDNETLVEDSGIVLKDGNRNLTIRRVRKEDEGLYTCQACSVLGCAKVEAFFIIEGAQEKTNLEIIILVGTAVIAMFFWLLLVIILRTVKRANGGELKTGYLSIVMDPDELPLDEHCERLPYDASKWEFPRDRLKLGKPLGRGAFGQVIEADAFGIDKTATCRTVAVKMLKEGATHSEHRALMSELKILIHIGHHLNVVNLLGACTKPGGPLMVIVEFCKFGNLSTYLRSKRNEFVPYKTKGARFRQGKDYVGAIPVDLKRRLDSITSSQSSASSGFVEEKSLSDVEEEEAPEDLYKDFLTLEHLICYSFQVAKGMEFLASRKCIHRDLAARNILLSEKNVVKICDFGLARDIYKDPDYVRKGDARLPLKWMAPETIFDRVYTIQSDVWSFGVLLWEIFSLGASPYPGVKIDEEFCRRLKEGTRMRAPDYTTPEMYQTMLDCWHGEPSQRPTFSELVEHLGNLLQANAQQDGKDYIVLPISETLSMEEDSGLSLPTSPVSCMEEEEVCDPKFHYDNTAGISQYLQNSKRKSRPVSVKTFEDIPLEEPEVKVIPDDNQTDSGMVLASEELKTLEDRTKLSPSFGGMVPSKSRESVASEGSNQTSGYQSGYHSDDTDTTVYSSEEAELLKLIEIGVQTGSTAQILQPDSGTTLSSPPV

in vivo [11] = details: mouse, inhaled or intranasal, 1 mg/kg
in vivo [12] = details: mouse, inhaled or intranasal, 1 mg/kg; remark: listed apart in the source

Sequence of Aurora kinase B (Q96GD4 whole entry): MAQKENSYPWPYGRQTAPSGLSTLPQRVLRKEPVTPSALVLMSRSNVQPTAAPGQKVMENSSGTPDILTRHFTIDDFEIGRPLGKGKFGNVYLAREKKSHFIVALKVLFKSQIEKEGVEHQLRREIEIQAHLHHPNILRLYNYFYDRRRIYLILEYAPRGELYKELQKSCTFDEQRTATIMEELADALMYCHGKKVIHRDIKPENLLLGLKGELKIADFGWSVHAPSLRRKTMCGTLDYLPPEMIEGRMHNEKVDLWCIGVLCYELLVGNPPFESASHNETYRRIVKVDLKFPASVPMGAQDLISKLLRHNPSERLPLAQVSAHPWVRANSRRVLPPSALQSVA

| Structure (SMILES) | IC50 (Aurora kinase B) | Papp at 3 h (in vitro [1]) | solubility at 4 h (physchem [2]) | also measured |
| --- | --- | --- | --- | --- |
| CCc1cc(O)c(F)cc1-c1cc(N(C)CCO)c2nc(N)ncc2c1 | 7940 nM | 17 ×10⁻⁶ cm/s |  |  |
| CCc1cc(O)c(F)cc1-c1cc(N[C@@H]2CCCN(C)C2)c2nc(N)ncc2c1 | 25100 nM | 25 ×10⁻⁶ cm/s |  |  |
| CCc1cc(O)c(F)cc1-c1cc(N[C@@H]2C[C@H]3CC[C@@H](C2)N3)c2nc(N)ncc2c1 | 2510 nM | < 1 ×10⁻⁶ cm/s | 21 µg/mL (≈ 51.5 µM) |  |
| CCc1cc(O)c(F)cc1-c1cc(N[C@H]2CCCN(C)C2)c2nc(N)ncc2c1 | 15800 nM | 26 ×10⁻⁶ cm/s | 168 µg/mL (≈ 425 µM) | half-life at 1 h, 10000 µM (in vitro [3]): 0.0283 h; half-life at 1 h, 10000 µM (in vitro [4]): > 4.28 h |
| CCc1cc(O)c(F)cc1-c1cc(NC2CCN(C)CC2)c2nc(N)ncc2c1 |  | 14 ×10⁻⁶ cm/s |  | half-life at 1 h, 10000 µM (in vitro [4]): 1.6 h |
| Cn1cc(Nc2ncc3cccc(NC4CCNCC4)c3n2)cn1 |  |  |  | IC50 [5]: 7.94 nM; IC50 [6]: 63.1 nM |
| CC(=O)N1CCC(Cc2cccc3cnc(Nc4cnn(C)c4)nc23)CC1 |  |  |  | IC50 [5]: 63.1 nM; solubility kinetic at 1 h (physchem [7]): 224 µM (≈ 81.6 µg/mL); IC50 [6]: 79.4 nM |
| CCc1cc(O)c(F)cc1-c1cc(NC(CO)CO)c2nc(N)ncc2c1 |  | < 0.3 ×10⁻⁶ cm/s | 65 µg/mL (≈ 175 µM) |  |
| CCc1cc(O)c(F)cc1-c1cc(N[C@@H](C)CO)c2nc(N)ncc2c1 |  | 17.6 ×10⁻⁶ cm/s |  | solubility thermodynamic at 4 h (physchem [8]): 7 µg/mL (≈ 19.6 µM); solubility at 4 h (physchem [9]): 92 µg/mL (≈ 258 µM); half-life at 1 h, 10000 µM (in vitro [3]): 0.0167 h; half-life at 1 h, 10000 µM (in vitro [4]): > 4.28 h |
| CCc1cc(O)c(F)cc1-c1cc(NCCCO)c2nc(N)ncc2c1 | 7940 nM | 12 ×10⁻⁶ cm/s | 49 µg/mL (≈ 137 µM) |  |
| CCc1cc(O)c(F)cc1-c1cc(OC)c2nc(N)ncc2c1 | 3160 nM | 14.5 ×10⁻⁶ cm/s | 14 µg/mL (≈ 44.7 µM) | solubility kinetic at 1 h (physchem [7]): 103 µM (≈ 32.3 µg/mL) |
| COc1cc(-c2ccc(O)cc2)cc2cnc(N)nc12 | 2510 nM |  |  | IC50 [5]: 31.6 nM |
| CCc1cc(O)c(F)cc1-c1cc(N[C@@H](C)CO)c2[nH]c(N)nc(=O)c2c1 |  |  |  | IC50 [5]: 1580 nM; IC50 [6]: 12600 nM |
| CCc1cc(O)c(F)cc1-c1cc(NC[C@H](C)O)c2nc(N)ncc2c1 |  |  | 28 µg/mL (≈ 78.6 µM) |  |
| CCc1cc(O)c(F)cc1-c1cc(N[C@@H](C)CO)c2nc(NCCCN(C)C)ncc2c1 | 10000 nM | 4.9 ×10⁻⁶ cm/s | 983 µg/mL (≈ 2230 µM) | half-life at 1 h, 10000 µM (in vitro [3]): > 4.28 h; half-life at 1 h, 10000 µM (in vitro [4]): 3.77 h |
| CCc1cc(O)c(F)cc1-c1cc(N[C@H]2C[C@H]3CC[C@@H](C2)N3)c2nc(N)ncc2c1 | 6310 nM |  |  | half-life at 1 h, 10000 µM (in vitro [3]): 0.0683 h; half-life at 1 h, 10000 µM (in vitro [4]): 1.9 h |
| CCc1cc(O)c(F)cc1-c1cc(NC2CCN(C(C)=O)CC2)c2nc(N)ncc2c1 | 20000 nM | 6.9 ×10⁻⁶ cm/s | 1 µg/mL (≈ 2.36 µM) | IC50 [10]: 631 nM |
| CCc1c(-c2cc(OC)c3nc(N)ncc3c2)ccc(O)c1F | 3980 nM |  | 64 µg/mL (≈ 204 µM) | IC50 [5]: 7.94 nM |
| CCc1cc(O)c(F)cc1-c1cc(NCC2CCN(C)CC2)c2nc(N)ncc2c1 | 10000 nM | 10 ×10⁻⁶ cm/s | 108 µg/mL (≈ 264 µM) |  |
| CCc1cc(O)c(F)cc1-c1cc(NC[C@@H](C)O)c2nc(N)ncc2c1 |  |  | 57 µg/mL (≈ 160 µM) |  |
| CCc1cc(O)c(F)cc1-c1cc(N[C@H](C)CO)c2nc(N)ncc2c1 |  | 17 ×10⁻⁶ cm/s | 126 µg/mL (≈ 354 µM) |  |
| CCc1cc(O)c(F)cc1-c1cc(N[C@@H](C)CO)c2nc(NCCCCCN(C)C)ncc2c1 | 1580 nM | 13.3 ×10⁻⁶ cm/s | 275 µg/mL (≈ 586 µM) | half-life at 12 h (in vivo [11]): 1.9 h; half-life at 1 h, 10000 µM (in vitro [3]): > 4.28 h; CL/F at 12 h (in vivo [12]): 106 mL/min/kg; half-life at 1 h, 10000 µM (in vitro [4]): > 4.28 h |
| Cn1cc(Nc2ncc3cccc(CC4CCNCC4)c3n2)cn1 |  |  |  | IC50 [5]: 12.6 nM; solubility kinetic at 1 h (physchem [7]): 292 µM (≈ 94.1 µg/mL); IC50 [6]: 100 nM |
| CCc1cc(O)c(F)cc1-c1cc(N[C@@H](C)CO)c2nc(NCCOCCN(C)C)ncc2c1 | 20000 nM |  |  | half-life at 1 h, 10000 µM (in vitro [3]): > 4.28 h; half-life at 1 h, 10000 µM (in vitro [4]): > 4.28 h |
